# Assay results from publication PMC6502678 (Journal of structural biology, 2019).
# B1: human ferritin light chain, iron-free homopolymer (apoferritin) (natural protein)
# chain: not shown
# Target: the molecule itself
# Assay: cryo-EM structure
protein,measurement,value
B1,binding result,binds
